# According to publication PMC6212790:
# Some of the results follow. At the low end of the ranking the order means little.
# Molecular target: T1, GST-Rok (full length) (UniProt O34857)
# T1 sequence: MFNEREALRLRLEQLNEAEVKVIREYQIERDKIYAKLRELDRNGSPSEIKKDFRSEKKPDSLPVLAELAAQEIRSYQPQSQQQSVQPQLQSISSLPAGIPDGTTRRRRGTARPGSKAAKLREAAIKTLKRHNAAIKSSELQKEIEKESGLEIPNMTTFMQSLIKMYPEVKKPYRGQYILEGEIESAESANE
# Assay: protein binding microarray;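 further: rank score from −0.5 (least bound) to 0.5 (best bound)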
# Details: Rok is a gene silencer of Bacillus subtilis; high values mean tight binding; most listed sequences are background and not binding sites; double strand, one strand shown
row,Sequence,binding signal [E-score]
1,ATCAGGCC,-0.131
2,ATGCGGTA,0.174
3,AGAACCAA,-0.0547
4,CGGTAGAA,0.417
5,ACGTGATG,-0.13
6,ACGCTCGC,-0.246
7,CTAGAGTA,0.185
8,CGCCTCTC,-0.282
9,AACGTGCA,0.133
10,CGCGAATA,0.0566
11,ACAATAGA,0.281
12,ATCTCTAC,0.0894
13,CTGGTCTC,0.0532
14,ACATACAT,0.295
15,GGGGCTAA,-0.24
16,ACAAATAT,0.402
17,AGCATTCG,-0.0466
18,TCATCTAA,0.0754
19,AATGTTTG,0.124
20,GCCGTGCC,-0.324
21,CATGCACA,-0.139
22,CCGTAAAG,-0.216
23,ACATCATA,0.145
24,CACCGTTA,0.173

row,Sequence,binding signal [E-score]
1,CACCCGGC,0.0021
2,CTAGGGTC,-0.0484
3,GGCGAGCA,-0.295
4,AATAGCCA,0.0168
5,ACCTTAGA,0.00282
6,ACATCCTC,-0.00918
7,CCATATCA,0.0943
8,CAAAACGG,-0.000516
9,TGACTTAA,0.04
10,CCGCGCTC,-0.214
11,GTGTAACA,0.157
12,CTATATAG,0.402
13,ACCTTGCC,-0.137
14,GGGCGGGA,-0.293
15,ACAGTTAT,0.295
16,GTGGTACA,0.0722
17,GTCTGACA,-0.19
18,CGTTACTC,-0.0623
19,AGCGTCCG,-0.126
20,CCGGCGTA,-0.111
21,CAAGTGTG,0.116
22,CAGTGGAG,-0.235
23,CCCTTTAA,-0.168
24,GCACACGA,0.023

row,Sequence,binding signal [E-score]
1,CCAGACAC,-0.0826
2,CCCCTCAA,-0.198
3,GAAGTACC,0.0862
4,CGCCGCGA,-0.234
5,CTTTACGA,0.0116
6,AAAAGCCA,0.0244
7,GAGCTCCA,-0.141
8,CAGGTACC,0.168
9,AACATGTT,0.0394
10,AGACACCT,-0.256
11,AGGGGTAG,0.034
12,TAAACTGA,0.0984
13,CACCAACA,-0.0215
14,ATGGAGGG,-0.32
15,TCAGAAAA,-0.147
16,AGGGGAGC,-0.308
17,AAGGTTGG,-0.0381
18,GGTATTAC,0.268
19,ATGCTGTG,0.0717
20,ATGGTCAG,-0.103
21,TAAAAACA,0.192
22,AGGAGGCC,-0.318
23,AGTACAAG,0.217
24,CCCAGTAG,0.151

row,Sequence,binding signal [E-score]
1,ACGTGTTG,0.157
2,TATACGGA,0.203
3,TAACTTGA,0.102
4,CCCGCCAC,-0.383
5,GAATCTAA,0.201
6,CGCTCCTA,-0.000475
7,ACTCGAGA,-0.0236
8,AGGGGGTC,-0.413
9,AAAACGCT,0.0282
10,AGTACGGA,0.214
11,ACTGGGTA,0.0458
12,GGATTTTA,0.274
13,ACGCGTGG,0.0091
14,CCACGATC,-0.171
15,ACCCTGGA,-0.086
16,CCTACGTC,-0.128
17,CTCGCAAG,-0.133
18,ATCTCTGG,0.0407
19,CCTCCTGA,-0.346
20,AACCAGGT,-0.244
21,GCCCACGA,-0.303
22,AGATACAC,0.212
